Test results: patent US12049518B2, “Pharmacokinetics and cholecystokinin-2 receptor (CCK2R) targeting for diagnosis and therapy” (Medizinische Universitat Innsbruck, priority 2017, dated 2024)
Where “and” joins values, the source holds several entries; their conditions need not be identical. Equal values may be shown once. At least one peptide structure holds a part that was inferred or is arguable (an end, a ring closure or a residue). Some results were stated once for a whole list of compounds, not compound by compound. Where a SMILES comes first, the peptide text is derived from it. [ ]: non-standard residue; d: D form. The star is where a group is joined. DOTA = O=C(O)CN1CCN(CC(=O)O)CCN(CC(=O)*)CCN(CC(=O)O)CC1; 1Nal = N[C@@H](Cc1cccc2ccccc12)C(=O)O; NMeNle = CCCC[C@H](NC)C(=O)O

Legend:
[1] = system: A431-CCK2R tumour xenografts; assay: biodistribution: tumour uptake in A431-CCK2R xenografts; format: in vivo, athymic BALB/c nude mice; settings: for tumour uptake in A431-CCK2R tumour xenografts, different radioisotopes: 1 or 4 h p.i.; for tumour uptake in A431-CCK2R tumour xenografts, different radioisotopes / tumour uptake in A431-CCK2R tumour xenografts: i.v.; for tumour-to-kidney ratio: A431-CCK2R xenografts, activity ratio from dissected tissues; for tumour uptake in A431-CCK2R tumour xenografts: 111In-labelled, 4 h p.i.
[2] = system: A431-CCK2R cells; assay: cell internalization in A431-CCK2R cells; format: cell-based, human; settings: 2 h incubation at 37° C.
[3] = system: same tumour model; settings: 111In-PP-F11 at 4 h p.i., Laverman et al. 2011; cited from earlier work
[4] = system: serum proteins; assay: protein binding to serum proteins (Sephadex G-50 size-exclusion chromatography); format: in vitro ADME; settings: human serum, 37° C.
Description: Additionally, protein binding to serum proteins was investigated. For this purpose the ^111In-labelled peptidomimetics were incubated in duplicates in fresh human serum at 37° C. (500 pmol/mL) and analyzed after 4 and 24 h by Sephadex G-50 size-exclusion chromatography (GE Healthcare Illustra, Little Chalfont, UK). The percentage of protein binding was determined by measuring the column and the eluate in a 2480 Wizard 2 automatic gamma-counter (Perkin Elmer Life Sciences and Analytical Sciences, Turku, F).

| Compound | tumour uptake in A431-CCK2R tumour xenografts, different radioisotopes [1] | tumour-to-kidney ratio [1] | internalized radioligand fraction in A431-CCK2R cells [2] | tumour uptake [3] | tumour uptake in A431-CCK2R tumour xenografts [1] | Percentage of radioligand bound to serum proteins after 24 h incubation [4] |
| --- | --- | --- | --- | --- | --- | --- |
| CCCC[C@@H](C(=O)N[C@@H](CC(=O)O)C(=O)N[C@@H](Cc1cccc2ccccc12)C(N)=O)N(C)C(=O)[C@H](Cc1c[nH]c2ccccc12)NC(=O)CNC(=O)[C@H](Cc1ccc(O)cc1)NC(=O)[C@H](C)NC(=O)[C@@H](CCC(=O)O)NC(=O)CN1CCN(CC(=O)O)CCN(CC(=O)O)CCN(CC(=O)O)CC1 [^68Ga-DOTA-MGS5, metal not drawn] | 23.3±4.7 % A/g | 4.1±0.3 | 54 % of total |  |  |  |
| CCCC[C@@H](C(=O)N[C@@H](CC(=O)O)C(=O)N[C@@H](Cc1cccc2ccccc12)C(N)=O)N(C)C(=O)[C@H](Cc1c[nH]c2ccccc12)NC(=O)[C@@H]1CCCN1C(=O)[C@H](Cc1ccc(O)cc1)NC(=O)[C@H](C)NC(=O)[C@@H](CCC(=O)O)NC(=O)CN1CCN(CC(=O)O)CCN(CC(=O)O)CCN(CC(=O)O)CC1 [^68Ga-DOTA-MGS12, metal not drawn] ({DOTA}-[dE]AYPW[NMeNle]D[1Nal]-NH2) |  |  | ~40 % of total |  |  |  |
| CCCC[C@@H](C(=O)N[C@@H](CC(=O)O)C(=O)N[C@@H](Cc1cccc2ccccc12)C(N)=O)N(C)C(=O)[C@H](Cc1c[nH]c2ccccc12)NC(=O)CNC(=O)[C@H](Cc1ccc(O)cc1)NC(=O)[C@H](C)NC(=O)[C@@H](CCC(=O)O)NC(=O)c1ccc(NN)nc1 [^99mTc-HYNIC-MGS5, metal not drawn] | 24.8±4.4 % IA/g | 3.3±1.1 | 63 % of total |  |  |  |
| CSCC[C@H](NC(=O)[C@H](Cc1c[nH]c2ccccc12)NC(=O)CNC(=O)[C@H](Cc1ccc(O)cc1)NC(=O)[C@H](C)NC(=O)[C@@H](CCC(=O)O)NC(=O)CN1CCN(CC(=O)O)CCN(CC(=O)O)CCN(CC(=O)O)CC1)C(=O)N[C@@H](CC(=O)O)C(=O)N[C@@H](Cc1ccccc1)C(N)=O [^111In-DOTA-MG11, metal not drawn, reference compound] ({DOTA}-[dE]AYGWMDF-NH2) |  |  | 29 % of total | 3.04±1.30 % ID/g |  |  |
| CSCC[C@H](NC(=O)[C@H](Cc1c[nH]c2ccccc12)NC(=O)CNC(=O)[C@H](Cc1ccc(O)cc1)NC(=O)[C@H](C)NC(=O)[C@@H](CCC(=O)O)NC(=O)CN1CCN(CC(=O)O)CCN(CC(=O)O)CCN(CC(=O)O)CC1)C(=O)N[C@@H](CC(=O)O)C(=O)N[C@@H](Cc1cccc2ccccc12)C(N)=O [^111In-DOTA-MGS1, ^111In-DOTA-DGlu-Ala-Tyr-Gly-Trp-Met-Asp-1Nal-NH2, metal not drawn, reference compound] ({DOTA}-[dE]AYGWMD[1Nal]-NH2) |  |  | 21-25 % of total |  | 1.3±0.1 % IA/g |  |
| CCCC[C@@H](C(=O)N[C@@H](CC(=O)O)C(=O)N(C)[C@@H](Cc1ccccc1)C(N)=O)N(C)C(=O)[C@H](Cc1c[nH]c2ccccc12)NC(=O)CNC(=O)[C@H](Cc1ccc(O)cc1)NC(=O)[C@H](C)NC(=O)[C@@H](CCC(=O)O)NC(=O)CN1CCN(CC(=O)O)CCN(CC(=O)O)CCN(CC(=O)O)CC1 [^111In-DOTA-MGS4, ^111In-DOTA-DGlu-Ala-Tyr-Gly-Trp-(N-Me)Nle-Asp-(N-Me)Phe-NH2, metal not drawn, reference compound] |  |  | 21-25 % of total |  | 10.2±2.0 % IA/g |  |
| CCCC[C@@H](C(=O)N[C@@H](CC(=O)O)C(=O)N[C@@H](Cc1cccc2ccccc12)C(N)=O)N(C)C(=O)[C@H](Cc1c[nH]c2ccccc12)NC(=O)CNC(=O)[C@H](Cc1ccc(O)cc1)NC(=O)[C@H](C)NC(=O)[C@@H](CCC(=O)O)NC(=O)CN1CCN(CC(=O)O)CCN(CC(=O)O)CCN(CC(=O)O)CC1 [^111In-DOTA-MGS5, metal not drawn] |  | 6.4±0.6 | 47-68 % of total and 68 % of total |  |  | > 40% |
| CCCC[C@@H](C(=O)N[C@@H](CC(=O)O)C(=O)N[C@@H](Cc1ccc2ccccc2c1)C(N)=O)N(C)C(=O)[C@H](Cc1c[nH]c2ccccc12)NC(=O)CNC(=O)[C@H](Cc1ccc(O)cc1)NC(=O)[C@H](C)NC(=O)[C@@H](CCC(=O)O)NC(=O)CN1CCN(CC(=O)O)CCN(CC(=O)O)CCN(CC(=O)O)CC1 [^111In-DOTA-MGS5-2, metal not drawn] |  | 6.0±0.9 | 45 % of total |  | 25.5±4.5 % IA/g |  |
| CCCC[C@@H](C(=O)N[C@@H](CC(=O)O)C(=O)N[C@@H](Cc1cccc2ccccc12)C(N)=O)N(C)C(=O)[C@H](Cc1c[nH]c2ccccc12)NC(=O)CNC(=O)[C@H](Cc1ccc(O)cc1)NC(=O)[C@@H]1CCCN1C(=O)[C@@H](CCC(=O)O)NC(=O)CN1CCN(CC(=O)O)CCN(CC(=O)O)CCN(CC(=O)O)CC1 [^111In-DOTA-MGS8, metal not drawn] ({DOTA}-[dE]PYGW[NMeNle]D[1Nal]-NH2) |  | 11.6±3.0 | 47-68 % of total |  | 42.8±2.3 % IA/g | > 50% |
| CCCC[C@@H](C(=O)N[C@@H](CC(=O)O)C(=O)N[C@@H](Cc1cccc2ccccc12)C(N)=O)N(C)C(=O)[C@H](Cc1c[nH]c2ccccc12)NC(=O)CNC(=O)[C@H](Cc1ccc(O)cc1)NC(=O)[C@H](C)NC(=O)[C@@H](CCCCN)NC(=O)CN1CCN(CC(=O)O)CCN(CC(=O)O)CCN(CC(=O)O)CC1 [^111In-DOTA-MGS9, metal not drawn] ({DOTA}-[dK]AYGW[NMeNle]D[1Nal]-NH2) |  |  | 37 % of total |  | 33.9±9.5 % IA/g |  |
| CCCC[C@@H](C(=O)N[C@@H](CC(=O)O)C(=O)N[C@@H](Cc1cccc2ccccc12)C(N)=O)N(C)C(=O)[C@H](Cc1c[nH]c2ccccc12)NC(=O)CNC(=O)[C@@H]1CCCN1C(=O)[C@H](Cc1ccc(O)cc1)NC(=O)[C@@H](CCC(=O)O)NC(=O)CN1CCN(CC(=O)O)CCN(CC(=O)O)CCN(CC(=O)O)CC1 [^111In-DOTA-MGS10, metal not drawn] ({DOTA}-[dE]YPGW[NMeNle]D[1Nal]-NH2) |  | 9.3±2.0 | 47-68 % of total |  | 46.3±8.2 % IA/g | > 50% |
| CCCC[C@@H](C(=O)N[C@@H](CC(=O)O)C(=O)N[C@@H](Cc1cccc2ccccc12)C(N)=O)N(C)C(=O)[C@H](Cc1c[nH]c2ccccc12)NC(=O)[C@@H]1CCCN1C(=O)[C@H](Cc1ccc(O)cc1)NC(=O)[C@H](C)NC(=O)[C@@H](CCC(=O)O)NC(=O)CN1CCN(CC(=O)O)CCN(CC(=O)O)CCN(CC(=O)O)CC1 [^111In-DOTA-MGS12, metal not drawn] ({DOTA}-[dE]AYPW[NMeNle]D[1Nal]-NH2) |  |  | 47-68 % of total |  |  | > 40% |
| CCCC[C@@H](C(=O)N[C@@H](CC(=O)O)C(=O)N[C@@H](Cc1cccc2ccccc12)C(N)=O)N(C)C(=O)[C@H](Cc1c[nH]c2ccccc12)NC(=O)CNC(=O)[C@H](Cc1ccc(O)cc1)NC(=O)[C@H](C)NC(=O)[C@@H](CCC(=O)O)NC(=O)CN1CCN(CC(=O)O)CCN(CC(=O)O)CCN(CC(=O)O)CC1 [^177Lu-DOTA-MGS5, metal not drawn] |  | 6.5±1.6 | 63 % of total |  |  |  |
| CCCC[C@@H](C(=O)N[C@@H](CC(=O)O)C(=O)N[C@@H](Cc1cccc2ccccc12)C(N)=O)N(C)C(=O)[C@H](Cc1c[nH]c2ccccc12)NC(=O)CNC(=O)[C@@H]1CCCN1C(=O)[C@H](Cc1ccc(O)cc1)NC(=O)[C@@H](CCC(=O)O)NC(=O)CN1CCN(CC(=O)O)CCN(CC(=O)O)CCN(CC(=O)O)CC1 [^177Lu-DOTA-MGS10, metal not drawn] ({DOTA}-[dE]YPGW[NMeNle]D[1Nal]-NH2) |  |  | > 50 % of total |  |  |  |
| ^111In-PP-F11N: PP-F11N labelled with 111In [reference compound] |  |  | below 24 % of total |  |  |  |
